Assay [1] addresses T1, FLAG-TRIP6 (UniProt Q15654).
T1 sequence: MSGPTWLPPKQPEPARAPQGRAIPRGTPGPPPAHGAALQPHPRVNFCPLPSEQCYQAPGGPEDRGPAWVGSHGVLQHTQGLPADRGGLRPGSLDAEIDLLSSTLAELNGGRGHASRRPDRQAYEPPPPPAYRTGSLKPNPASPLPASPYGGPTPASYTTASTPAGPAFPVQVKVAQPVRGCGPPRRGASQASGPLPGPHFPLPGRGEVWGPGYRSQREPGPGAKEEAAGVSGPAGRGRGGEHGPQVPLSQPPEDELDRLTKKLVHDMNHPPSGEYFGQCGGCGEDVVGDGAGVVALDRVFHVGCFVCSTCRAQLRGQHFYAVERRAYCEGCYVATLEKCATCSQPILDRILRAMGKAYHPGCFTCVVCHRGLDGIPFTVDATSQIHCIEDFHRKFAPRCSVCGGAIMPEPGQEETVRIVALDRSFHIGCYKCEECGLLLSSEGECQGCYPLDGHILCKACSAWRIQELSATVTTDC
As to the kind of experiment: condition: only with overexpressed ligase-defective EGFP-C70A-TRAF6; co-IP; as a17, with ligase-defective EGFP-C70A-TRAF6 co-expressed.

The chains behind the UniProt entries cited, without tags or fusion partners.
UniProt Q04206: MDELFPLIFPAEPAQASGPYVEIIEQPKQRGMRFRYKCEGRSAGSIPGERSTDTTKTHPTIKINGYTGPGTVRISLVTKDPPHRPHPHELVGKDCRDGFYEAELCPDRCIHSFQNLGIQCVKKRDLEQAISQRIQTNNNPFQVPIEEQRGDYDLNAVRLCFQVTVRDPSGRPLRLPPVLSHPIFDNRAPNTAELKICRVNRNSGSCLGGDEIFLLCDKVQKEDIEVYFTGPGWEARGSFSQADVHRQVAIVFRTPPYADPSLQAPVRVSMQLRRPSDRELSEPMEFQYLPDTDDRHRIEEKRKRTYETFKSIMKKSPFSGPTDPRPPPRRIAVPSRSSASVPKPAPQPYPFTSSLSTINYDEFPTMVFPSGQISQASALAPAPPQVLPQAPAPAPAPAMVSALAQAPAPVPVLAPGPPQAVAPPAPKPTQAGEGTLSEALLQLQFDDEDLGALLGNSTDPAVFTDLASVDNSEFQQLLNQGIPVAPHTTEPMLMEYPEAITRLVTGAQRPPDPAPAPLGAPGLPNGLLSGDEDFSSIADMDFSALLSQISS

The target in assay [2] is T2, TRIP6 (thyroid hormone receptor-interacting protein 6), endogenous (human (endogenous in SKOV-3, HEK293T, U373-MG)) (UniProt Q15654).
T2 sequence: T1 sequence
As to the kind of experiment: co-IP; endogenous TRIP6 immunoprecipitated with anti-TRIP6 mouse monoclonal antibody from HEK293T expressing FLAG-TRAF6; LPA time course; immunoblot for endogenous NF-κB p65.

In assay [3] the target is T1, FLAG-TRIP6. As to the kind of experiment: co-IP; FLAG-TRIP6 immunoprecipitated from cytosolic and nuclear fractions of HEK293T expressing HA-K63-ubiquitin and EGFP or EGFP-TRAF6; starved 6 h, LPA 1 h; immunoblot for endogenous NF-κB p65.
The next assay deals with T3, GST-TRIP6 (UniProt Q15654).
T3 sequence: T1 sequence
As to the kind of experiment: pull-down; purified recombinant TRAF6 incubated with GST, GST-TRIP6 or GST-TRIP6 fragments, 4 °C, 3 h; anti-TRAF6 immunoblot; both purified.

In assay [4] the target is T4, GST-TRIP6 mutant containing LIM domains 1 to 3 (residues 279–476) (UniProt Q15654).
T4 sequence: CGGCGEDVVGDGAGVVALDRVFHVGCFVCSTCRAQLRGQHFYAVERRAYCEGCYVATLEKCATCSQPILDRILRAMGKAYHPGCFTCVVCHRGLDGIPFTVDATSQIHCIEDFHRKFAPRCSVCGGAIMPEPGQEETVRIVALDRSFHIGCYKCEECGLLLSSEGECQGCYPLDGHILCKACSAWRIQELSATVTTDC
Described as above.

In assay [5] the target is T5, GST-TRIP6 mutant containing LIM domains 2 to 3 (residues 340–476) (UniProt Q15654).
T5 sequence: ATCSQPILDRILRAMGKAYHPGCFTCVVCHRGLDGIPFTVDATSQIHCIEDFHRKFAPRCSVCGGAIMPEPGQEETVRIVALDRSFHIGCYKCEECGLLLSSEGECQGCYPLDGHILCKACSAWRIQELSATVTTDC
Described as above.

In assay [6] the target is T6, GST-TRIP6 mutant containing LIM3 domain (residues 398–476) (UniProt Q15654).
T6 sequence: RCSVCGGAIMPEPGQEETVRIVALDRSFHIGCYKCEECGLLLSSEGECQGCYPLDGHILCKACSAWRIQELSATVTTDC
Described as above.

For a further assay, the target named is T7, FLAG-A20 (UniProt P21580).
T7 sequence: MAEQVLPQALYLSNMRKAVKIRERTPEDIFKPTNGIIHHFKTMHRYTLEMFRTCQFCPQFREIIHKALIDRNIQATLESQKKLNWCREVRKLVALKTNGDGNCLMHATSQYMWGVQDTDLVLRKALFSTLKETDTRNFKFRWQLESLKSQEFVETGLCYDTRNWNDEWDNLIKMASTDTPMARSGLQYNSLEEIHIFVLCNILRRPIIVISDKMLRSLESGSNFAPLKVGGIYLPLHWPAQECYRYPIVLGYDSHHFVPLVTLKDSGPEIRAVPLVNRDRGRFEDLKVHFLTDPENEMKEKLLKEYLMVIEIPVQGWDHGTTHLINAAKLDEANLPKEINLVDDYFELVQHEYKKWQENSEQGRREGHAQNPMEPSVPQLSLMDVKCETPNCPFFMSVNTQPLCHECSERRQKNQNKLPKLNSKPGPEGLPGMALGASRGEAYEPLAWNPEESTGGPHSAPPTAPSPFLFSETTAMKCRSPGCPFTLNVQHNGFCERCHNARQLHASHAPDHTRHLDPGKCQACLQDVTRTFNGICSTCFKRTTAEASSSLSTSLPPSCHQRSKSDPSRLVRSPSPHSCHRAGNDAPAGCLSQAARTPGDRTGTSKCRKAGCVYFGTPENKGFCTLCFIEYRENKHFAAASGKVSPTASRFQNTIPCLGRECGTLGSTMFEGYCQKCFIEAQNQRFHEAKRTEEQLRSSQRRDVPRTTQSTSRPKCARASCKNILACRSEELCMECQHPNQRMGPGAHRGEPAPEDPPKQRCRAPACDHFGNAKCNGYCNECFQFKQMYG
As to the kind of experiment: pull-down; FLAG-A20 immunoprecipitated on anti-FLAG M2 agarose from LPA-treated HEK293T (RIPA buffer); beads incubated with 0.1 μg purified recombinant TRAF6 without or with 0.1 μg purified recombinant TRIP6, 4 °C, 3 h; washed four times; immunoblot; both purified.

In a further assay the target is T8, FLAG-E52A-TRIP6 (UniProt Q15654).
T8 sequence: T1 sequence with E52A
As to the kind of experiment: co-IP; FLAG-TRIP6 constructs co-expressed with EGFP-tagged TRAF6 domains in HEK293T; anti-FLAG M2 immunoprecipitation; anti-GFP immunoblot.

Assay [7] concerns the target T1, FLAG-TRIP6. Described as above.

Residue numbers refer to the chain shown, from its start. Results are given in words; binding and its absence hold for the method and conditions named. For some of these results: In cells and extracts the contact can be indirect. Some entries that bind do so weakly or less than the wild type. For some of these results: Tags and fused reporters may be left off the sequences shown.

With “NF-κB p65, endogenous (HEK293T) (from UniProt Q04206 1-551)”, the binding entry with FLAG-TRIP6 [1] is reported as “no binding”; in [2] it was “binds”; in the assay with FLAG-TRIP6 [3], “binds”.

B1: purified recombinant TRAF6 (protein, UniProt P70196 1-530)
chain: MSLLNCENSCGSSQSSSDCCAAMAASCSAAVKDDSVSGSASTGNLSSSFMEEIQGYDVEFDPPLESKYECPICLMALREAVQTPCGHRFCKACIIKSIRDAGHKCPVDNEILLENQLFPDNFAKREILSLTVKCPNKGCLQKMELRHLEDHQVHCEFALVNCPQCQRPFQKCQVNTHIIEDCPRRQVSCVNCAVSMAYEEKEIHDQSCPLANIICEYCGTILIREQMPNHYDLDCPTAPIPCTFSVFGCHEKMQRNHLARHLQENTQLHMRLLAQAVHNVNLALRPCDAASPSRGCRPEDPNYEETIKQLESRLVRQDHQIRELTAKMETQSMYVGELKRTIRTLEDKVAEMEAQQCNGIYIWKIGNFGMHLKSQEEERPVVIHSPGFYTGRPGYKLCMRLHLQLPTAQRCANYISLFVHTMQGEYDSHLPWPFQGTIRLTILDQSEALIRQNHEEVMDAKPELLAFQRPTIPRNPKGFGYVTFMHLEALRQGTFIKDDTLLVRCEVSTRFDMGGLRKEGFQPRSTDAGV
Take B1: the binding entry with GST-TRIP6 was “binds”; in [4], “binds”; in [5] it was “binds”; in assay [6], “no binding”; with FLAG-A20 it was “binds”.

B2: GST-CT mutant containing residues 239–530 of TRAF6 (domain or fragment, UniProt P70196 239-530, looked up)
chain: PIPCTFSVFGCHEKMQRNHLARHLQENTQLHMRLLAQAVHNVNLALRPCDAASPSRGCRPEDPNYEETIKQLESRLVRQDHQIRELTAKMETQSMYVGELKRTIRTLEDKVAEMEAQQCNGIYIWKIGNFGMHLKSQEEERPVVIHSPGFYTGRPGYKLCMRLHLQLPTAQRCANYISLFVHTMQGEYDSHLPWPFQGTIRLTILDQSEALIRQNHEEVMDAKPELLAFQRPTIPRNPKGFGYVTFMHLEALRQGTFIKDDTLLVRCEVSTRFDMGGLRKEGFQPRSTDAGV
notes: TRAF6 carboxyl-terminal domain, residues 239-530; also called TRAF6-CT domain; carboxyl-terminal domain; source: purified recombinant GST-tagged protein (pGEX-6P3)
With B2, the binding entry is “no binding” with FLAG-E52A-TRIP6 and “binds” in the assay with FLAG-TRIP6 [7].

These data come from article PMC4850058, “TRIP6 antagonizes the recruitment of A20 and CYLD to TRAF6 to promote the LPA2 receptor-mediated TRAF6 activation” (Cell Discovery, 2016).
